Measured values reported in the supplement of paper PMC3334620.
Whole data set: some 33,000 sequences, median “E-score (-0.5 to 0.5)” near -0.01, cut for the highest 2% near 0.26. This is one part of the list.

molecular target: Ste12 (UniProt P13574); test: PBM E-score (8-mer binding enrichment) (E-score (-0.5 to 0.5)); higher = stronger / more preferred TF binding; most listed sequences are background and not binding sites; settings: protein concentration: 200 nM; construct: GST-DNA-binding domain
How it was run: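 For each ungapped eight-base word taken together with its reverse complement, the Universal PBM Analysis Suite assigned an E-score. Binding data came from GST-tagged yeast transcription factors, applied at about 100-200 nM, on universal all-10-mer Agilent arrays made double-stranded by primer extension. Fluorescent anti-GST marked bound protein, and scans were normalised with masliner.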

| Sequence | PBM E-score |
| --- | --- |
| ATCCGGTG | 0.0204 |
| CATGGCCC | 0.0579 |
| AAGCGCTT | 0.0528 |
| TCCGTTAA | 0.00055 |
| CTTATGTC | -0.103 |
| CGGTTCCC | -0.101 |
| CTCCAGAC | -0.0241 |
| GGGACAAA | 0.113 |
| TAGGTTAA | 0.0556 |
| CAACCGCC | -0.00632 |
| AGCGGATG | 0.0168 |
| ATACACGG | 0.00387 |
| GACTTTCA | 0.0403 |
| GACAACCC | 0.118 |
| AAATGATA | 0.292 |
| ATGTAAAT | 0.113 |
| TGATAGCA | 0.118 |
| CTGTCCGC | -0.0238 |
| CTAATTAG | -0.00317 |
| AGGGGCCC | -0.147 |
| GCACAAGC | -0.104 |
| CACGATCC | 0.0258 |
| ATTCAGAA | 0.235 |
| AGAGCTAC | -0.201 |
| CGGCACTC | -0.211 |

| Sequence | PBM E-score |
| --- | --- |
| CCGAAGGA | -0.121 |
| ACAAAATC | 0.291 |
| ACTTGATG | 0.00022 |
| CGAGTAGA | -0.0637 |
| TAAAGGCA | 0.0797 |
| ACAAAAGT | -0.005 |
| AAGGGACG | -0.065 |
| GGGAATCA | -0.141 |
| CAAAGCCG | -0.00016 |
| GTGGCCAA | 0.0326 |
| GGCCTTTA | -0.0491 |
| GAAGTAGC | -0.063 |
| AACCACAT | 0.114 |
| GATGGGGA | -0.114 |
| CGCTAGGA | -0.176 |
| ACCTGCGT | -0.0683 |
| CGCATACG | -0.0951 |
| CCTTAAGG | -0.196 |
| GGGTTGAA | 0.145 |
| ATCAGTCC | -0.325 |
| CAAAGTCC | -0.143 |
| TATGTGAA | 0.0278 |
| GCCTAACC | -0.105 |
| AGATCAAG | 0.046 |
| AAGGTTCG | -0.185 |

| Sequence | PBM E-score |
| --- | --- |
| GTTGGCAA | 0.0378 |
| TAGAGTAA | -0.0164 |
| CCAGGTAA | -0.0812 |
| AACTAATA | 0.231 |
| CCGTGTCC | -0.0529 |
| ACGTATCA | 0.14 |
| CCAGGTAC | -0.114 |
| AACCTGCC | -0.125 |
| CGGAGAAA | 0.18 |
| CAGCAGAC | -0.134 |
| CAGCGCCG | -0.054 |
| CCCCTTCG | -0.193 |
| GCACATAA | 0.0869 |
| AACTATAA | 0.188 |
| TAAGCCTA | -0.0855 |
| CTTCTAAC | -0.0172 |
| CAGCTCCG | 0.0325 |
| CTCTAACC | 0.0529 |
| GACATGAA | 0.0824 |
| CGCTTTCA | 0.0838 |
| CGCGCACG | -0.00644 |
| CTACAAGA | -0.00425 |
| CGTCTGTC | -0.0024 |
| AATACTCG | 0.0328 |
| ACTACAAG | -0.0663 |

| Sequence | PBM E-score |
| --- | --- |
| ACTTCGCG | 0.0548 |
| CGACGCAC | -0.0687 |
| GATGGACC | 0.0165 |
| AGCCTATG | -0.109 |
| GTTCTCAA | 0.125 |
| ACTTGGCA | -0.163 |
| CGTAGCAG | -0.125 |
| GGACTTCA | -0.137 |
| CTGCCTAA | -0.074 |
| GGAACAGA | 0.0917 |
| ATTTATGG | 0.233 |
| GCCACCAC | -0.172 |
| CTCAACCC | -0.0989 |
| CACTTGCC | -0.189 |
| CATGACCC | -0.14 |
| CTCAGGTC | -0.0882 |
| CGTTTTCC | -0.0434 |
| CCGCAGAA | 0.0414 |
| ATGACCCG | -0.156 |
| GCATACGA | -0.105 |
| AAGCGTGC | -0.2 |
| TCTTTGCA | 0.0593 |
| CATGTAGC | -0.019 |
| AGTCGACA | 0.0271 |
| CTTAACTC | 0.0673 |

| Sequence | PBM E-score |
| --- | --- |
| TATGGCCA | -0.0534 |
| AATTGTCG | 0.0625 |
| CCTCGAAA | 0.176 |
| AAGGAGTA | -0.0852 |
| CGACGTGC | -0.126 |
| ATCGTCTA | -0.0181 |
| CGAACTTA | -0.0357 |
| ACCAGCAC | -0.0823 |
| CCAAGCCG | -0.119 |
| AGCCCGAG | -0.12 |
| AGAGCTCT | -0.184 |
| CGGCCAGC | -0.154 |
| GGCGATGA | -0.0312 |
| GGTTCACA | -0.0161 |
| GAGTGCCC | -0.0794 |
| ACTTCCCT | -0.0919 |
| CAGGCGTA | -0.0983 |
| TAAGTTGA | 0.127 |
| CCCAGAGC | -0.272 |
| GGCATACA | -0.119 |
| ACAGTCAC | -0.143 |
| CACCCACC | 0.242 |
| CCCCAGAA | 0.0424 |
| TAAGCGCA | -0.116 |
| ACCAATGG | -0.133 |

| Sequence | PBM E-score |
| --- | --- |
| AAGGTATA | 0.0928 |
| ATCCGCGA | 0.123 |
| AACGCATG | 0.0525 |
| ATACATCG | 0.0903 |
| AGATTTGC | 0.0417 |
| ATCCATTA | -0.0147 |
| CGCATCCG | -0.212 |
| ACGGGGCG | 0.159 |
| CATGGCGC | -0.223 |
| CACGACGC | -0.0651 |
| CGCCCGCC | 0.154 |
| ACGACTAG | -0.0953 |
| AAACTCCA | 0.0535 |
| ATACAATC | 0.0838 |
| ACTCCTCA | -0.194 |
| AGGTCGTA | -0.115 |
| AGTACAGC | -0.26 |
| AAAACCGC | 0.0403 |
| AGTGCAGA | 0.0178 |
| AACAAGTT | 0.154 |
| TCTATCAA | 0.0277 |
| GCTATGCC | -0.196 |
| CCCTGCTA | -0.225 |
| AATAAAGT | 0.207 |
| AGAGAATG | 0.0223 |

| Sequence | PBM E-score |
| --- | --- |
| CTCACACC | -0.106 |
| AGTCATGG | -0.142 |
| ACTACCAG | 0.0509 |
| CGTGTGGC | -0.158 |
| CGCCTATC | -0.0614 |
| GCTCTTGA | -0.0672 |
| CATTGGTA | -0.0979 |
| ATGTCCTC | -0.0515 |
| ACCATGCG | -0.063 |
| GGGTCGCA | 0.184 |
| ATCGCCAA | -0.138 |
| CAGTGTGA | 0.0235 |
| CGATGTGC | -0.097 |
| GTCAACGA | -0.109 |
| CGACCTGC | -0.0774 |
| AAGATGAA | 0.18 |
| ACCCCTAT | 0.00239 |
| AGTATCCA | -0.0382 |
| ATCAAGAA | 0.202 |
| CAACCTCC | -0.0635 |
| ATGCCTAG | -0.0736 |
| TAACGCCA | 0.0882 |
| TGATTACA | -0.00637 |
| AGCTACTG | -0.00093 |
| AGTGGAAG | -0.306 |

| Sequence | PBM E-score |
| --- | --- |
| ATGAACTG | 0.175 |
| CCCGACTC | 0.0124 |
| GATTGTTA | -0.0146 |
| CCAGTAGC | 0.0741 |
| CCTCAGCG | -0.13 |
| AACGAGCT | -0.117 |
| AAACCTTC | -0.0506 |
| CTGTATGA | 0.0532 |
| ACGTAGAG | -0.288 |
| TAACTACA | -0.0145 |
| CAAAACAC | 0.191 |
| CACCCTCC | 0.213 |
| CGATCCGA | -0.0155 |
| CTGCGCAA | -0.0942 |
| CACCCTGA | -0.00848 |
| GACAGGAA | 0.0114 |
| ACCATTCT | -0.00079 |
| GTGCGTTA | 0.156 |
| TGATACAA | 0.339 |
| GATGGCCA | -0.0587 |
| ACTCCCAC | -0.115 |
| TGGAATAA | 0.0344 |
| ATAGGAGG | -0.0464 |
| GCTCGCTA | -0.0187 |
| AGTACCAT | -0.133 |

| Sequence | PBM E-score |
| --- | --- |
| AGTGAGAA | 0.204 |
| AAACCTCG | 0.0455 |
| ACAGTCCT | 0.0491 |
| ATCCTCAC | 0.186 |
| ATTGAAGA | 0.00866 |
| AATTCACT | 0.101 |
| AGCGCGCG | 0.147 |
| CGACCGTC | -0.173 |
| ACAACCGA | 0.122 |
| ATTATGCC | 0.0896 |
| CAGACATG | 0.0575 |
| AGCTACCC | -0.277 |
| GCGGCCAC | -0.113 |
| CGGTCGCC | -0.184 |
| CTACACCC | -0.094 |
| GAGATTAC | 0.0211 |
| CGCACGGA | -0.0302 |
| TCGCACCA | 0.156 |
| CGTGTAAC | 0.0271 |
